PubChem BioAssay AID624202 (National Center for Advancing Translational Sciences (NCATS), 2012)
About 4,000 (1.1%) of roughly 380,000 compounds were called active. The shares of active, inactive and inconclusive entries below differ from those in the screen. The call rests on the fitted dose curve; in most records, active means well fitted activation curve with a large enough effect; inconclusive means small, poorly fitted or top-dose-only effect; inactive means no such curve, though single readings can be large or run the other way. A potency beside an inconclusive call is a rough fit, not a confirmed value.

Assay: qHTS Assay to Identify Small Molecule Activators of BRCA1 Expression; further: nearly all actives have a fitted effect of over 80% in size
Details: MCF7-BRCA1-FFLuc reporter, luminescence, 48 h; activation: at 46.1 µM (top of the series), scaled: vehicle 0%, 10 µM genistein 100% unless noted
Summary of the method: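 Luminescence from a BRCA1-driven firefly luciferase in MCF7 cells was the read-out, taken 15 min after substrate addition following 48 h compound exposure at 37 °C. Data were normalized to a 10 microM genistein control and DMSO vehicle.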
Potency means the concentration at half of the fitted maximal effect; tags describe the fitted curve by direction and shape.

Question: With `CC(=O)Oc1cc(C(=O)OCC(=O)NC23CC4CC(CC(C4)C2)C3)cc(OC(C)=O)c1OC(C)=O` as the molecule, how does the Potency read?
Answer: inactive

Question: Which Potency does the source give for `Cc1ccsc1C(=O)NN=C1CCCCCC1` here?
Answer: inconclusive: 1.12 µM [activator, full curve, poor fit]

Question: For `Cc1ccc(C(=O)NCCn2c(C)cc3ccccc32)cc1C`, which Potency is on record?
Answer: inactive

Question: Which Potency does the source give for `Cc1ccc2nc3c(cc(S(=O)(=O)c4ccccc4)c(=N)n3C3CCCC3)c(=O)n2c1` here?
Answer: inconclusive: 1.58 µM [activator, partial curve, poor fit]

Question: Which Potency does the source give for `O=c1c(Br)c(N2CCCC2)cnn1-c1ccccc1` here?
Answer: inconclusive: 1.41 µM [activator, full curve, poor fit]

Question: With `CC(=O)c1cccc(NC(=O)CCOc2ccccc2)c1` as the molecule, how does the Potency read?
Answer: inconclusive: 35.5 µM [activator, single point]

Question: For `O=C(N/N=C/c1ccc(OC(=O)c2ccccc2Br)cc1)c1ccccn1`, which Potency is on record?
Answer: inconclusive: 7.94 µM [activator, partial curve, poor fit]

Question: Which Potency does the source give for `O=C(O)c1ccc(OCc2ccc(C(=O)O)o2)cc1` here?
Answer: inconclusive: 12.6 µM [activator, partial curve, poor fit]

Question: For `CCc1cccc(C)c1NC(=O)CN1C(=O)NC(C)(CCC(C)C)C1=O` (stereo unspecified), which Potency is on record?
Answer: inactive

Question: Which Potency does the source give for `Cc1nc(-c2ccc(NC(=O)c3ccccc3C)cc2)cs1` here?
Answer: inconclusive: 2.24 µM [activator, full curve, poor fit]

Question: With `O=c1c2ccccc2nnn1COc1cccc2ccccc12` as the molecule, how does the Potency read?
Answer: active: 8.91 µM

Question: Which Potency does the source give for `CC1Nc2ncnc(N3CCc4ccccc4C3)c2N(Cc2ccccc2)C1=O` (stereo unspecified) here?
Answer: inactive

Question: With `c1cnc(SCCOc2ccc3c(c2)CCC3)nc1` as the molecule, how does the Potency read?
Answer: inconclusive: 2.24 µM [activator, full curve, poor fit]

Question: Which Potency does the source give for `CCOC(=O)C(=Cc1ccc2c(c1)OCO2)c1ccccc1` here?
Answer: inactive

Question: Which Potency does the source give for `O=C(NN=Cc1ccc2c(c1)CCN2)c1cccs1` here?
Answer: inconclusive: 2.82 µM [activator, full curve, poor fit]

Question: For `COc1ccccc1/C=C1\SC(N2CCC(C)CC2)=NC1=O`, which Potency is on record?
Answer: inactive

Question: With `COc1ccc(NC(=S)c2ccc(N(C)C)cc2)cc1` as the molecule, how does the Potency read?
Answer: inconclusive: 1.58 µM [activator, full curve, poor fit]

Question: With `OC(COc1ccc2ccccc2c1)CN1CCOCC1` (stereo unspecified) as the molecule, how does the Potency read?
Answer: active: 11.2 µM

Question: Which Potency does the source give for `COCCc1nc2ccc(C(=O)N(C)Cc3cccc(-n4cccn4)c3)cc2o1` here?
Answer: inconclusive: 11.2 µM [activator, partial curve, poor fit]

Question: For `CCc1cc2cccc(C)c2nc1SCC(=O)Nc1nonc1C`, which Potency is on record?
Answer: inactive

Question: Which Potency does the source give for `Cc1cccc(NC(=O)C2CCN(S(=O)(=O)c3cccs3)CC2)c1` here?
Answer: inactive

Question: With `O=C(Nc1nccs1)c1ccc[nH]c1=O` as the molecule, how does the Potency read?
Answer: inconclusive: 3.55 µM [activator, partial curve, poor fit]

Question: For `O=C(Cc1ccccc1)Nc1nc2ccccc2[nH]1`, which Potency is on record?
Answer: inconclusive: 12.6 µM [activator, partial curve, poor fit]

Question: For `O/N=C/c1ccnc(SCc2ccc(Cl)cc2)n1`, which Potency is on record?
Answer: inconclusive: 8.91 µM [activator, partial curve, poor fit]

Question: For `O=C(CCNc1ccccc1)c1ccc2c(c1)OCO2`, which Potency is on record?
Answer: inconclusive: 14.1 µM [activator, partial curve, poor fit]

Question: Which Potency does the source give for `CCOc1ccccc1/C=C/c1onc(C)c1S(=O)(=O)N1CCC(C(=O)N(CC)CC)CC1` here?
Answer: inactive

Question: Which Potency does the source give for `Cc1ccc(/C=C/C(=O)Nc2nc3ccccc3[nH]2)cc1` here?
Answer: inconclusive: 0.501 µM [activator, full curve, poor fit]

Question: Which Potency does the source give for `Cc1ccc(C(=O)COC(=O)c2ccc3c(c2)C(=O)N(c2cccc4ncccc24)C3=O)cc1C` here?
Answer: inactive

Question: Which Potency does the source give for `COC(=O)[C@H](CC(C)C)NC(=O)Cn1cnc(C(=O)Nc2ccc(C)c(C)c2)n1` here?
Answer: active: 11.2 µM

Question: Which Potency does the source give for `COc1cccc(-c2csc(NC(C)=O)n2)c1` here?
Answer: active: 12.6 µM

Question: For `CC(C)(C)c1cc(=O)n2c(C#N)c(C#N)nc2[nH]1`, which Potency is on record?
Answer: inactive

Question: For `COc1cccc(Cn2c(=O)n(-c3ccccc3C)c(=O)c3c2c2cc(C)ccc2n3C)c1`, which Potency is on record?
Answer: inactive

Question: Which Potency does the source give for `Cc1c2ccccc2nc2c(F)c(NC(C)C)c(F)c(F)c12` here?
Answer: inconclusive: 31.6 µM [activator, single point]

Question: For `Cc1ccc(CCC(=O)Nc2ccc(Cl)cc2)o1`, which Potency is on record?
Answer: inactive

Question: For `Cc1nc(C)c(-c2csc(NCc3ccco3)n2)s1`, which Potency is on record?
Answer: inconclusive: 11.2 µM [activator, partial curve, poor fit]

Question: With `CN(Cc1nccs1)C(=O)c1ccc2nc(Cc3ccccc3F)oc2c1` as the molecule, how does the Potency read?
Answer: active: 3.16 µM

Question: For `CCN(CC(=O)Nc1c(F)cccc1F)C(=O)CNC(=O)c1sc2ccccc2c1Cl`, which Potency is on record?
Answer: inconclusive: 10 µM [activator, partial curve, poor fit]

Question: For `Fc1ccc(-n2ncc3c(SCc4cccnc4)ncnc32)cc1`, which Potency is on record?
Answer: inconclusive: 1.26 µM [activator, full curve, poor fit]

Question: Which Potency does the source give for `Cc1cc(N2CCC(C)CC2)n2ncc(-c3ccccc3)c2n1` here?
Answer: inconclusive: 0.631 µM [activator, full curve, poor fit]

Question: With `CCn1nc(C)c(/C=N/NC(=O)Cc2ccc(Cl)cc2)c1C` as the molecule, how does the Potency read?
Answer: active: 7.94 µM

Question: With `O=C(NCCC1=CCCCC1)c1cnsn1` as the molecule, how does the Potency read?
Answer: inconclusive: 14.1 µM [activator, partial curve, poor fit]

Question: With `CN(C)c1cccc(C(=O)N(Cc2ccccc2)Cc2ccccc2)c1` as the molecule, how does the Potency read?
Answer: inactive

Question: With `COc1ncnc2sc(-c3ccccc3)cc12` as the molecule, how does the Potency read?
Answer: inconclusive: 3.16 µM [activator, full curve, poor fit]

Question: For `CCOc1ccc(-n2nc3cc(C)c(N)cc3n2)cc1`, which Potency is on record?
Answer: inconclusive: 0.631 µM [activator, full curve, poor fit]

Question: For `CN(C)c1c(F)cc(-c2nn[nH]n2)cc1F`, which Potency is on record?
Answer: inconclusive: 31.6 µM [activator, single point]

Question: With `COc1ccc(CCC(=O)NCCOc2ccccc2Cl)cc1` as the molecule, how does the Potency read?
Answer: inconclusive: 12.6 µM [activator, single point]

Question: With `COc1ccc(NC(=S)NC(=O)C2CCC2)cc1` as the molecule, how does the Potency read?
Answer: inconclusive: 12.6 µM [activator, partial curve, poor fit]

Question: Which Potency does the source give for `COc1cccc(/C=N/NC(=O)c2cnn(-c3ccccc3)c2N)c1` here?
Answer: inconclusive: 15.8 µM [activator, partial curve, poor fit]

Question: With `CC1CCCC(C)N1C(=O)c1cc(-c2ccco2)on1` (stereo unspecified) as the molecule, how does the Potency read?
Answer: inconclusive: 17.8 µM [activator, single point]

Question: For `O=C(O)/C=C/C(=O)N1N=C(c2ccco2)CC1c1ccco1` (stereo unspecified), which activation is on record?
Answer: inconclusive: 228% [activator]

Question: For `Cc1ccc(OCc2cc(C(=O)N3CC4C[C@@H]5CC3C[C@H](C4)C5)no2)cc1C`, which Potency is on record?
Answer: inconclusive: 11.2 µM [activator, partial curve, poor fit]

Question: Which Potency does the source give for `CC(=O)Oc1ccc(C)cc1-n1nc2ccccc2n1` here?
Answer: inconclusive: 10 µM [activator, partial curve, poor fit]

Question: For `CNc1ccccc1C(=O)OCC(=O)N1CCc2ccccc2C1`, which Potency is on record?
Answer: inconclusive: 14.1 µM [activator, single point]

Question: Which Potency does the source give for `Cc1ccc(S(=O)(=O)N2CCCCC2)cc1NC(=O)Cn1cnnn1` here?
Answer: inactive

Question: With `O=C1c2ccccc2C(=O)N1CCCc1nc(-c2ccncc2)no1` as the molecule, how does the activation read?
Answer: inactive: -0.0892% [at 1.84 µM, scaled: vehicle 0%, 10 µM genistein 100%]

Question: With `COc1ccc(-c2noc(CCCC(=O)N3CCN(c4cc(C)ccc4C)CC3)n2)cc1` as the molecule, how does the Potency read?
Answer: inconclusive: 14.1 µM [activator, single point]

Question: Which Potency does the source give for `COc1cccc(-n2cc(-c3ccc(F)cc3)[nH]c2=S)c1` here?
Answer: inconclusive: 7.08 µM [activator, partial curve, poor fit]

Question: For `COc1ccc(OC)c(S(=O)(=O)N/N=C\c2ccc3c(c2)OCO3)c1`, which Potency is on record?
Answer: active: 12.6 µM

Question: For `Cn1c2ccccc2c(=O)c2cc(NCCCN3CCOCC3)ccc21`, which Potency is on record?
Answer: inconclusive: 11.2 µM [activator, partial curve, poor fit]

Question: With `CC(=O)Nc1ccc(NC(=O)C2CCCN2S(=O)(=O)c2ccc3c(c2)CCCC(=O)N3)cc1` (stereo unspecified) as the molecule, how does the Potency read?
Answer: inactive

Question: For `O=C(OCC(=O)N1CCCCC1)c1c[nH]c2ccccc12`, which Potency is on record?
Answer: active: 6.31 µM

Question: With `COc1ccc(C(=O)Nc2cc(C(C)C)c(O)c(S(=O)(=O)c3ccc(Cl)cc3)c2C)cc1` as the molecule, how does the Potency read?
Answer: inconclusive: 1.58 µM [activator, full curve, poor fit]

Question: For `O=C(Nc1nnc(C2CC2)s1)C1COc2ccccc2O1` (stereo unspecified), which Potency is on record?
Answer: inconclusive: 7.94 µM [activator, partial curve, poor fit]

Question: Which Potency does the source give for `CCc1ccc(CN2CCC(Oc3ccc(C(=O)N4CCCCC4)cc3)CC2)cc1` here?
Answer: inactive

Question: For `COc1cc(/C=C(\C#N)C(=O)Nc2cccc(C(=O)O)c2)ccc1OCc1ccc(Cl)cc1`, which Potency is on record?
Answer: inconclusive: 3.98 µM [activator, partial curve, poor fit]

Question: With `CC(C)(C)OC(=O)C[C@H]1C/C=C\C[C@@H](CC(=O)N(CCO)Cc2ccccc2)C(=O)N[C@H](C(C)(C)C)COC1=O` as the molecule, how does the Potency read?
Answer: inactive

Question: With `COC(=O)c1sc(NC(=O)c2oc3ccccc3c2C)nc1C` as the molecule, how does the Potency read?
Answer: active: 7.08 µM

Question: With `O=C(CSCc1cccc(F)c1)N1CCN(c2ccccc2)CC1` as the molecule, how does the Potency read?
Answer: inconclusive: 10 µM [activator, partial curve, poor fit]

Question: Which Potency does the source give for `O/N=C\c1cnc(N2CCN(c3ccccc3)CC2)s1` here?
Answer: inconclusive: 17.8 µM [activator, partial curve, poor fit]

Question: Which Potency does the source give for `O=C(CC1SC(=Nc2ccccc2)N(CCc2c[nH]c3ccccc23)C1=O)Nc1ccccc1F` (stereo unspecified) here?
Answer: inactive

Question: With `COC(=O)c1cnc(SCc2ccc(Cl)cc2)n1C` as the molecule, how does the Potency read?
Answer: active: 11.2 µM
